Measurements published in PubChem BioAssay AID1508642 (National Center for Advancing Translational Sciences (NCATS), 2021).
About 200 (0.47%) of roughly 43,000 compounds were called active. Another 12% or so got no clear call; they are omitted. Calls follow the shape of the dose curve; as a rule, active = well fitted cell-killing curve with a large enough effect; inconclusive = small, poorly fitted or top-dose-only effect, or effect the other way; inactive = flat fitted curve, though single readings scatter. This is one part of the list.

test: Cell viability qHTS assay in S16 Pmp22-F2sN cells; conditions: S16 Pmp22-F2sN Schwann cells viability, CellTiter-Glo, 24 h; series mostly up to 57.5 µM; activity change, negative = cytotoxicity: at the top concentration; also: nearly all actives have a fitted effect of over 65% in size
Outline: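 Used to flag compounds lowering reporter output through toxicity, this quantitative HTS measures ATP-based CellTiter-Glo luminescence in S16 Pmp22-F2sN Schwann cells after 24 h compound exposure at 37C.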
% is scaled to controls: 0 for no effect and ±100 for the full control effect.

SMILES	activity change, negative = cytotoxicity
CCOc1ccc(N(CC)S(=O)(=O)N2CCCC(C(=O)Nc3ccc(C(C)=O)cc3)C2)cc1 (stereo not given)	inactive: -3.2%
COc1cccc(C(=O)c2c(N)c(-c3nc(-c4ccccc4)cs3)c3ccccn23)c1	inactive: 2.13%
Cc1cccc(-n2c(=O)c3c(c4cc(C)ccc4n3C)n(CC(=O)N3CCCC3)c2=O)c1	inactive: -1.5%
Cc1ccc(NC(=O)Cn2c(=O)n(Cc3nc(C)no3)c(=O)c3ccccc32)c(Cl)c1	inactive: -23.2%
CCOc1ccccc1NC(=O)c1nc(SC(C)C)ncc1Cl	inactive: -9.08%
CCc1ccc(NC(=O)CN2C(=O)C(c3ccc(Cl)cc3)=NC23CCCCC3)cc1	inactive: -21.7%
Cc1c(CNC2CCCCC2)c(C(=O)O)c(C)n1Cc1cccc(Cl)c1	inactive: 22.4%
Cc1ccc(CNC(=O)c2ccc(NC(=O)N3CCSc4ncccc43)cc2)cc1	inactive: -1.61%
CCc1ccc(-n2c(=O)c3c4c(sc3n(CC(=O)N3CCCCC3CC)c2=O)CCC4)cc1 (stereo not given)	inactive: -0.611%
Cc1cccc(/C=C(\C#N)c2nc3ccccc3c(=O)[nH]2)c1	inactive: 0.3%
COc1cc(NC(=O)CCS(=O)(=O)c2ccc3c(c2)CC(=O)N3C)cc(OC)c1OC	inactive: 19.7%
CCOc1ccc(-c2cc(C(=O)Oc3ccc(C#N)cc3)no2)cc1	inactive: 1.31%
COc1ccc(/C=C/c2nc(C#N)c(NCc3ccc(F)cc3)o2)cc1OC	inactive: 1.5%
Cc1ccccc1Nc1c(-c2cc(Br)ccc2F)nc2ccccn12	inactive: -1.55%
CCOC(=O)C1CCC(CN(Cc2ccccc2)S(=O)(=O)c2ccc(Br)cc2)CC1 (stereo not given)	inactive: -17.4%
CCCN1Cc2cccc(C(=O)Nc3ccc(C(C)=O)cc3)c2C1=O	inactive: -19.4%
COc1ccc(N2CCN(CCCNC(=O)c3cc(Nc4ccc(OC)cc4OC)nc4ccccc34)CC2)cc1	inactive: -14.5%
Fc1ccccc1Cc1cn2cc(-c3ccc(Cl)cc3)nc2s1	inactive: 14.1%
COc1ccccc1Cn1c(CNS(=O)(=O)c2ccc(C(C)C)cc2)nc2cccnc21	inactive: -6.71%
CCC(=O)N1CCCc2cc(S(=O)(=O)N3CCC(C(=O)NC4CCCCC4)CC3)ccc21	inactive: -2.71%

SMILES	activity change, negative = cytotoxicity
COc1ccc(CNC(=O)c2nc(SCc3ccccc3F)ncc2Cl)cc1	inactive: -1.76%
COc1ccccc1NC(=O)c1oc2ccccc2c1NC(=O)c1cccc(OC)c1OC	inactive: -22.3%
CCCS(=O)(=O)N1CC(=O)N(c2cccc(Cl)c2C)C(C)(C(=O)NC2CCCC2)C1 (stereo not given)	inactive: 12.1%
Cc1cc(-c2ccc(C)c(S(=O)(=O)NCc3cccc(Br)c3)c2)on1	inactive: -4.97%
Cc1cc(C)cc(OCC(=O)N(Cc2cccs2)c2ccc(Cl)cc2)c1	inactive: -10.5%
CCC(Oc1ccccc1)C(=O)Nc1cc(-c2cccc(C)c2)nn1-c1ccccc1 (stereo not given)	inactive: 18.8%
COc1ccc(-n2c(C)c(C(C)=O)c3cc(OC(=O)COc4ccccc4)ccc32)cc1	inactive: -5.97%
COc1ccc(-n2nc(C(=O)N3CCN(c4cccc(C)c4C)CC3)c3c4ccccc4n(C)c3c2=O)cc1Cl	inactive: -0.0531%
Cc1ccc(CNC(=O)Cc2c(C)c3c(cc(C)c4c(C)coc43)oc2=O)cc1	inactive: -3.47%
COc1cccc(CNC(=O)Cn2ncn3nc(-c4cccs4)cc3c2=O)c1OC	inactive: -26.9%
Fc1ccc(-c2nn(-c3ccccc3Cl)c3c2cnc2ccccc23)cc1	inactive: -0.621%
Cc1ccc2onc(CC(=O)N3CCN(c4cc(Cl)ccc4C)CC3)c2c1	inactive: 0.945%
Cc1ccc(-n2ncc(C(=O)NCCN3CCCC3)c2C2CCN(C(=O)OC(C)(C)C)CC2)cc1C	inactive: -0.274%
CCc1ccccc1-n1c(C)nc2cc(C(=O)NCCc3ccc(Cl)cc3)ccc21	inactive: -10.2%
Cc1ccc(CNC(=O)C2CCN(S(=O)(=O)c3cn(C)cn3)CC2)cc1	inactive: -25.6%
CC(C)OCCCNC(=O)CN1C(=O)COc2ccc(S(=O)(=O)N3CCCCCC3)cc21	inactive: 15.6%
COCCCNC(=O)CCc1c(C)nc2nc(-c3cc(OC)cc(OC)c3)nn2c1C	inactive: 14.7%
CC(C)N(Cc1ccccc1)S(=O)(=O)c1ccc(-c2cc(C(F)(F)F)on2)s1	inactive: 13.4%
COC(=O)c1ccc2c(c1)N(Cc1ccc(Cl)cc1)C(=O)c1ccccc1S2	inactive: 6.05%
Cc1nc2nc(SCC(=O)NC3CCCCC3)nn2c(C)c1Cc1ccccc1Cl	inactive: 18.5%

SMILES	activity change, negative = cytotoxicity
COCCNc1nc2c(c(=O)n(Cc3cccc(Br)c3)c(=O)n2C)n1C	inactive: 3.42%
CC(C)c1ccc(Nc2ncnc3onc(-c4ccc(F)cc4)c23)cc1	inactive: -1.14%
Cc1cc(Cl)ccc1NC(=O)Cn1nnc2sc(-c3ccccc3)cc2c1=O	inactive: 3.84%
COc1ccc(OC)c2sc(N3CCN(C(=O)CCS(=O)(=O)c4ccc(F)cc4)CC3)nc12	inactive: -19%
CCCn1c2ccccc2c2cnn(CC(=O)N3CCCC(C)C3)c(=O)c21 (stereo not given)	inactive: -2.91%
COc1cccc(N2CCN(C(=O)c3cc4c(=O)oc5ccc(C)cc5c4s3)CC2)c1	inactive: 0.411%
CCCCn1nc(NC(=O)c2cccc(Cl)c2)c2cc3cccc(C)c3nc21	inactive: 6.54%
Cc1ccc(C(=O)c2cn(CC(=O)NCc3ccccc3Cl)c3nc(C)ccc3c2=O)cc1	inactive: -13.1%
CCCC(=O)NC(C)c1nc2ccccc2n1Cc1ccccc1 (stereo not given)	inactive: 1.74%
CCOC(=O)c1c(C)[nH]c(C)c1S(=O)(=O)N1CCCC(C(=O)NCc2cccc(OC)c2)C1 (stereo not given)	inactive: -1.45%
Cc1cc(C(=O)N2CCN(c3cccc(C)c3C)CC2)c2c(C)nn(-c3ccccc3)c2n1	inactive: -6.23%
CCOC(=O)c1sc(NC(=O)C2c3ccccc3Oc3ccccc32)c(C#N)c1C	inactive: -1.7%
COc1cccc(-c2ccc3c(N)c(C(=O)Nc4cc(C(F)(F)F)ccc4OC)sc3n2)c1	inactive: -7.11%
Cc1c(C(=O)N(C)C)sc2c1c(=O)n(-c1ccc(Cl)cc1)c(=O)n2Cc1ccccc1F	inactive: 1.46%
Cc1cccc(OCC(=O)Nc2cc(-c3ccccc3F)nn2-c2ccccc2)c1	inactive: -1.63%
COc1ccccc1CNC(=O)CCC1N=C2c3ccccc3N=C(SCC(=O)Nc3ccc(N(C)C)cc3)N2C1=O (stereo not given)	inactive: -21%
CCOC(=O)c1cc(-c2ccc(OC)cc2)n(CCC(=O)NCc2ccc(OC)cc2)c1C	inactive: -23%
CC(C)NC(=O)N1CCN(S(=O)(=O)c2ccc3c(ccn3C)c2)CC1	inactive: 0.226%
Cc1ccc(C)c(NC(=O)CN(C)S(=O)(=O)c2ccc3c(c2)CCC(=O)N3)c1	inactive: 4.49%
CCCS(=O)(=O)c1nc(S(=O)(=O)c2ccc(C)cc2)c(N(C)Cc2ccccc2)s1	inactive: -23.9%
